# Assay results: the supplement of paper PMC8728848
# The other results are listed elsewhere or left out.
# B1: DC-SIGN (Canis lupus), XP_853402 (protein)
# chain: AGLCRPCPWKWELFQESCYFFSQTQNTWKESISACQNLRAQLVIINSTEEQKFLKSWNTRNNQRTWIGLSDHHNEGSWKWVDNTPLQLSFWKEGEPNNHGDEDCVELYSDGWNDNRCSTENFWICKKPSSPCPGPGLNDIFEAQKIEWHE
# Legend:
# Assay in all cases: glycan array binding signal (z-score within array); higher = stronger binding
# Conditions in all cases: glycan notation: IUPAC condensed, linker removed
# Neu5Ac(a2-3)Gal(b1-4)Glc = target: Neu5Ac(a2-3)Gal(b1-4)Glc
# Method in brief: (§1)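 Glycan array data were curated from 3228 arrays in the Consortium for Functional Glycomics database and kept only where the protein sequence was available. Glycan names were converted to IUPAC-condensed notation, and columns mapping to the same glycan were averaged. The binding signal is a within-array Z-score, averaged across arrays of the same protein sequence at different concentrations or buffers and across linkers. Negative Z-scores can be read as non-binding.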
# [1] = target: Neu5Ac(a2-3)Gal(b1-4)GlcNAc
# Method in brief: as §1
# [2] = target: Neu5Ac(a2-3)Gal(b1-4)GlcNAc(b1-2)Man(a1-3)[GlcNAc(b1-2)Man(b1-4)GlcNAc(b1-2)Man(a1-6)]Man(b1-4)GlcNAc(b1-4)GlcNAc
# Method in brief: as §1
# [3] = target: Neu5Ac(a2-3)Gal(b1-4)GlcNAc(b1-2)Man(a1-3)[Neu5Ac(a2-6)Gal(b1-4)GlcNAc(b1-2)Man(a1-6)]Man(b1-4)GlcNAc(b1-4)GlcNAc
# Method in brief: as §1
# [4] = target: Neu5Ac(a2-3)Gal(b1-4)GlcNAc(b1-3)Gal(b1-3)GlcNAc
# Method in brief: as §1
# [5] = target: Neu5Ac(a2-3)Gal(b1-4)GlcNAc(b1-3)Gal(b1-4)GlcNAc
# Method in brief: as §1
# [6] = target: Neu5Ac(a2-3)Gal(b1-4)GlcNAc(b1-3)Gal(b1-4)GlcNAc(b1-3)Gal(b1-4)GlcNAc
# Method in brief: as §1
# [7] = target: Neu5Ac(a2-3)Gal(b1-4)GlcNAc(b1-3)Gal(b1-4)[Fuc(a1-3)]GlcNAc
# Method in brief: as §1
# [8] = target: Neu5Ac(a2-3)Gal(b1-4)GlcNAc(b1-3)GalNAc
# Method in brief: as §1
# [9] = target: Neu5Ac(a2-3)Gal(b1-4)GlcNAc(b1-6)[Gal(b1-3)]GalNAc
# Method in brief: as §1
# [10] = target: Neu5Ac(a2-3)Gal(b1-4)GlcNAc(b1-6)[Neu5Ac(a2-3)Gal(b1-3)]GalNAc
# Method in brief: as §1
# [11] = target: Neu5Ac(a2-3)Gal(b1-4)GlcNAc6S
# Method in brief: as §1
# [12] = target: Neu5Ac(a2-3)Gal(b1-4)[Fuc(a1-3)]GlcNAc
# Method in brief: as §1
# [13] = target: Neu5Ac(a2-3)Gal(b1-4)[Fuc(a1-3)]GlcNAc(b1-3)Gal
# Method in brief: as §1
# [14] = target: Neu5Ac(a2-3)Gal(b1-4)[Fuc(a1-3)]GlcNAc(b1-3)Gal(b1-4)GlcNAc
# Method in brief: as §1
# [15] = target: Neu5Ac(a2-3)Gal(b1-4)[Fuc(a1-3)]GlcNAc(b1-3)Gal(b1-4)[Fuc(a1-3)]GlcNAc(b1-3)Gal(b1-4)[Fuc(a1-3)]GlcNAc
# Method in brief: as §1
# [16] = target: Neu5Ac(a2-3)Gal(b1-4)[Fuc(a1-3)]GlcNAc(b1-6)[Gal(b1-3)]GalNAc
# Method in brief: as §1
# [17] = target: Neu5Ac(a2-3)Gal(b1-4)[Fuc(a1-3)]GlcNAc(b1-6)[Neu5Ac(a2-3)Gal(b1-3)]GalNAc
# Method in brief: as §1
# [18] = target: Neu5Ac(a2-3)Gal(b1-4)[Fuc(a1-3)]GlcNAc6S
# Method in brief: as §1
# [19] = target: Neu5Ac(a2-3)Gal6S(b1-4)GlcNAc
# Method in brief: as §1
# [20] = target: Neu5Ac(a2-3)Gal6S(b1-4)[Fuc(a1-3)]GlcNAc
# Method in brief: as §1
# Neu5Ac(a2-3)GalNAc = target: Neu5Ac(a2-3)GalNAc
# Method in brief: as §1
# [21] = target: Neu5Ac(a2-3)GalNAc(b1-4)GlcNAc
# Method in brief: as §1
# [22] = target: Neu5Ac(a2-3)[GalNAc(b1-4)]Gal(b1-4)Glc
# Method in brief: as §1
# [23] = target: Neu5Ac(a2-3)[GalNAc(b1-4)]Gal(b1-4)GlcNAc
# Method in brief: as §1
# [24] = target: Neu5Ac(a2-3)[Neu5Ac(a2-6)]GalNAc
# Method in brief: as §1
# Neu5Ac(a2-6)Gal = target: Neu5Ac(a2-6)Gal
# Method in brief: as §1
# Neu5Ac(a2-6)Gal(b1-4)Glc = target: Neu5Ac(a2-6)Gal(b1-4)Glc
# Method in brief: as §1
# [25] = target: Neu5Ac(a2-6)Gal(b1-4)GlcNAc
# Method in brief: as §1
# [26] = target: Neu5Ac(a2-6)Gal(b1-4)GlcNAc(b1-2)Man(a1-3)Man(b1-4)GlcNAc(b1-4)GlcNAc
# Method in brief: as §1
# [27] = target: Neu5Ac(a2-6)Gal(b1-4)GlcNAc(b1-2)Man(a1-3)[Gal(b1-4)GlcNAc(b1-2)Man(a1-6)]Man(b1-4)GlcNAc(b1-4)GlcNAc
# Method in brief: as §1
# [28] = target: Neu5Ac(a2-6)Gal(b1-4)GlcNAc(b1-2)Man(a1-3)[GlcNAc(b1-2)Man(a1-6)]Man(b1-4)GlcNAc(b1-4)GlcNAc
# Method in brief: as §1
# [29] = target: Neu5Ac(a2-6)Gal(b1-4)GlcNAc(b1-2)Man(a1-3)[GlcNAc(b1-2)Man(b1-4)GlcNAc(b1-2)Man(a1-6)]Man(b1-4)GlcNAc(b1-4)GlcNAc
# Method in brief: as §1
# [30] = target: Neu5Ac(a2-6)Gal(b1-4)GlcNAc(b1-2)Man(a1-3)[Man(a1-6)]Man(b1-4)GlcNAc(b1-4)GlcNAc
# Method in brief: as §1
# [31] = target: Neu5Ac(a2-6)Gal(b1-4)GlcNAc(b1-2)Man(a1-3)[Neu5Ac(a2-6)Gal(b1-4)GlcNAc(b1-2)Man(a1-6)]Man(b1-4)GlcNAc(b1-4)GlcNAc
# Method in brief: as §1
# [32] = target: Neu5Ac(a2-6)Gal(b1-4)GlcNAc(b1-2)Man(a1-6)Man(b1-4)GlcNAc(b1-4)GlcNAc
# Method in brief: as §1
# [33] = target: Neu5Ac(a2-6)Gal(b1-4)GlcNAc(b1-2)Man(a1-6)[Gal(b1-4)GlcNAc(b1-2)Man(a1-3)]Man(b1-4)GlcNAc(b1-4)GlcNAc
# Method in brief: as §1
# [34] = target: Neu5Ac(a2-6)Gal(b1-4)GlcNAc(b1-2)Man(a1-6)[GlcNAc(b1-2)Man(a1-3)]Man(b1-4)GlcNAc(b1-4)GlcNAc
# Method in brief: as §1
# [35] = target: Neu5Ac(a2-6)Gal(b1-4)GlcNAc(b1-2)Man(a1-6)[Man(a1-3)]Man(b1-4)GlcNAc(b1-4)GlcNAc
# Method in brief: as §1
# [36] = target: Neu5Ac(a2-6)Gal(b1-4)GlcNAc(b1-3)Gal(b1-3)GlcNAc
# Method in brief: as §1
# [37] = target: Neu5Ac(a2-6)Gal(b1-4)GlcNAc(b1-3)Gal(b1-4)GlcNAc
# Method in brief: as §1
# [38] = target: Neu5Ac(a2-6)Gal(b1-4)GlcNAc(b1-3)Gal(b1-4)GlcNAc(b1-3)Gal(b1-4)GlcNAc
# Method in brief: as §1
# [39] = target: Neu5Ac(a2-6)Gal(b1-4)GlcNAc(b1-3)Gal(b1-4)[Fuc(a1-3)]GlcNAc(b1-3)Gal(b1-4)[Fuc(a1-3)]GlcNAc
# Method in brief: as §1
# [40] = target: Neu5Ac(a2-6)Gal(b1-4)GlcNAc(b1-3)GalNAc
# Method in brief: as §1
# [41] = target: Neu5Ac(a2-6)Gal(b1-4)GlcNAc6S
# Method in brief: as §1
binder,measurement,setting,value
B1,glycan array binding signal (z-score),Neu5Ac(a2-3)Gal(b1-4)Glc,-0.236
same,glycan array binding signal (z-score),[1],-0.217
same,glycan array binding signal (z-score),[2],-0.275
same,glycan array binding signal (z-score),[3],-0.227
same,glycan array binding signal (z-score),[4],-0.222
same,glycan array binding signal (z-score),[5],-0.348
same,glycan array binding signal (z-score),[6],-0.19
same,glycan array binding signal (z-score),[7],-0.24
same,glycan array binding signal (z-score),[8],-0.268
same,glycan array binding signal (z-score),[9],-0.163
same,glycan array binding signal (z-score),[10],-0.286
same,glycan array binding signal (z-score),[11],-0.127
same,glycan array binding signal (z-score),[12],-0.257
same,glycan array binding signal (z-score),[13],-0.254
same,glycan array binding signal (z-score),[14],0.258
same,glycan array binding signal (z-score),[15],-0.279
same,glycan array binding signal (z-score),[16],-0.407
same,glycan array binding signal (z-score),[17],-0.1
same,glycan array binding signal (z-score),[18],-0.148
same,glycan array binding signal (z-score),[19],-0.189
same,glycan array binding signal (z-score),[20],-0.072
same,glycan array binding signal (z-score),Neu5Ac(a2-3)GalNAc,-0.29
same,glycan array binding signal (z-score),[21],-0.325
same,glycan array binding signal (z-score),[22],-0.111
same,glycan array binding signal (z-score),[23],-0.085
same,glycan array binding signal (z-score),[24],-0.263
same,glycan array binding signal (z-score),Neu5Ac(a2-6)Gal,-0.074
same,glycan array binding signal (z-score),Neu5Ac(a2-6)Gal(b1-4)Glc,-0.327
same,glycan array binding signal (z-score),[25],-0.202
same,glycan array binding signal (z-score),[26],-0.175
same,glycan array binding signal (z-score),[27],-0.188
same,glycan array binding signal (z-score),[28],-0.068
same,glycan array binding signal (z-score),[29],-0.249
same,glycan array binding signal (z-score),[30],-0.258
same,glycan array binding signal (z-score),[31],-0.244
same,glycan array binding signal (z-score),[32],-0.247
same,glycan array binding signal (z-score),[33],-0.013
same,glycan array binding signal (z-score),[34],-0.211
same,glycan array binding signal (z-score),[35],-0.296
same,glycan array binding signal (z-score),[36],-0.302
same,glycan array binding signal (z-score),[37],-0.327
same,glycan array binding signal (z-score),[38],-0.331
same,glycan array binding signal (z-score),[39],-0.169
same,glycan array binding signal (z-score),[40],-0.263
same,glycan array binding signal (z-score),[41],-0.341
